Some of the results follow.
Experiments:
Experiment in all cases: glycan array binding signal (z-score within array); higher = stronger binding
Details in all cases: glycan notation: IUPAC condensed, linker removed
Glc(b1-6)Glc = target: Glc(b1-6)Glc
How it was run: (§1)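 Arrays were curated from the Consortium for Functional Glycomics database, 3228 in total, and kept only where the protein sequence was available. Binding is expressed as a within-array Z-score. This score was averaged across arrays of the same protein sequence at different concentrations or buffers and across linkers, and negative values can be read as non-binding.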

GlcA(b1-3)Gal = target: GlcA(b1-3)Gal
How it was run: as §1

GlcA(b1-3)GlcNAc = target: GlcA(b1-3)GlcNAc
How it was run: as §1

GlcA(b1-6)Gal = target: GlcA(b1-6)Gal
How it was run: as §1

[1] = target: GlcA3S(b1-3)Gal(b1-4)GlcNAc(b1-2)Man
How it was run: as §1

[2] = target: GlcA3S(b1-3)Gal(b1-4)GlcNAc(b1-3)Gal(b1-4)Glc
How it was run: as §1

[3] = target: GlcNAc(a1-3)Gal(b1-4)GlcNAc
How it was run: as §1

[4] = target: GlcNAc(a1-4)Gal(b1-3)GlcNAc
How it was run: as §1

[5] = target: GlcNAc(a1-4)Gal(b1-4)GalNAc
How it was run: as §1

[6] = target: GlcNAc(a1-4)Gal(b1-4)GlcNAc
How it was run: as §1

[7] = target: GlcNAc(a1-4)Gal(b1-4)GlcNAc(b1-3)Gal(b1-4)Glc
How it was run: as §1

[8] = target: GlcNAc(a1-4)Gal(b1-4)GlcNAc(b1-3)Gal(b1-4)GlcNAc
How it was run: as §1

[9] = target: GlcNAc(a1-4)Gal(b1-4)GlcNAc(b1-3)Gal(b1-4)GlcNAc(b1-3)Gal(b1-4)GlcNAc
How it was run: as §1

[10] = target: GlcNAc(a1-4)Gal(b1-4)GlcNAc(b1-3)Gal(b1-4)[Fuc(a1-3)]GlcNAc(b1-3)Gal(b1-4)[Fuc(a1-3)]GlcNAc
How it was run: as §1

[11] = target: GlcNAc(a1-6)Gal(b1-4)GlcNAc
How it was run: as §1

[12] = target: GlcNAc(b1-2)Gal(b1-3)GalNAc
How it was run: as §1

[13] = target: GlcNAc(b1-2)Man(a1-3)[GlcNAc(b1-2)Man(a1-6)]Man(b1-4)GlcNAc(b1-4)GlcNAc
How it was run: as §1

[14] = target: GlcNAc(b1-2)Man(a1-3)[GlcNAc(b1-2)Man(a1-6)]Man(b1-4)GlcNAc(b1-4)[Fuc(a1-6)]GlcNAc
How it was run: as §1

[15] = target: GlcNAc(b1-2)Man(a1-3)[GlcNAc(b1-4)][GlcNAc(b1-2)Man(a1-6)]Man(b1-4)GlcNAc(b1-4)GlcNAc
How it was run: as §1

[16] = target: GlcNAc(b1-2)Man(a1-3)[GlcNAc(b1-4)][GlcNAc(b1-2)Man(a1-6)]Man(b1-4)GlcNAc(b1-4)[Fuc(a1-6)]GlcNAc
How it was run: as §1

[17] = target: GlcNAc(b1-2)[GlcNAc(b1-4)]Man(a1-3)[GlcNAc(b1-2)Man(a1-6)]Man(b1-4)GlcNAc(b1-4)GlcNAc
How it was run: as §1

[18] = target: GlcNAc(b1-2)[GlcNAc(b1-4)]Man(a1-3)[GlcNAc(b1-4)][GlcNAc(b1-2)Man(a1-6)]Man(b1-4)GlcNAc(b1-4)GlcNAc
How it was run: as §1

[19] = target: GlcNAc(b1-2)[GlcNAc(b1-4)]Man(a1-3)[GlcNAc(b1-4)][GlcNAc(b1-2)[GlcNAc(b1-6)]Man(a1-6)]Man(b1-4)GlcNAc(b1-4)GlcNAc
How it was run: as §1

[20] = target: GlcNAc(b1-2)[GlcNAc(b1-4)]Man(a1-3)[GlcNAc(b1-4)][GlcNAc(b1-2)[GlcNAc(b1-6)]Man(a1-6)]Man(b1-4)GlcNAc(b1-4)[Fuc(a1-6)]GlcNAc
How it was run: as §1

[21] = target: GlcNAc(b1-2)[GlcNAc(b1-6)]Man(a1-6)[GlcNAc(b1-2)Man(a1-3)]Man(b1-4)GlcNAc(b1-4)GlcNAc
How it was run: as §1

[22] = target: GlcNAc(b1-2)[GlcNAc(b1-6)]Man(a1-6)[GlcNAc(b1-2)Man(a1-3)]Man(b1-4)GlcNAc(b1-4)[Fuc(a1-6)]GlcNAc
How it was run: as §1

[23] = target: GlcNAc(b1-2)[GlcNAc(b1-6)]Man(a1-6)[GlcNAc(b1-4)][GlcNAc(b1-2)Man(a1-3)]Man(b1-4)GlcNAc(b1-4)GlcNAc
How it was run: as §1

GlcNAc(b1-3)Fuc = target: GlcNAc(b1-3)Fuc
How it was run: as §1

GlcNAc(b1-3)Gal = target: GlcNAc(b1-3)Gal
How it was run: as §1

[24] = target: GlcNAc(b1-3)Gal(b1-3)GalNAc
How it was run: as §1

GlcNAc(b1-3)Gal(b1-4)Glc = target: GlcNAc(b1-3)Gal(b1-4)Glc
How it was run: as §1

[25] = target: GlcNAc(b1-3)Gal(b1-4)GlcNAc
How it was run: as §1

[26] = target: GlcNAc(b1-3)Gal(b1-4)GlcNAc(b1-2)Man(a1-3)[GlcNAc(b1-3)Gal(b1-4)GlcNAc(b1-2)Man(a1-6)]Man(b1-4)GlcNAc(b1-4)GlcNAc
How it was run: as §1

[27] = target: GlcNAc(b1-3)Gal(b1-4)GlcNAc(b1-2)Man(a1-3)[GlcNAc(b1-3)Gal(b1-4)GlcNAc(b1-2)Man(a1-6)]Man(b1-4)GlcNAc(b1-4)[Fuc(a1-6)]GlcNAc
How it was run: as §1

[28] = target: GlcNAc(b1-3)Gal(b1-4)GlcNAc(b1-2)[GlcNAc(b1-3)Gal(b1-4)GlcNAc(b1-6)]Man(a1-6)[GlcNAc(b1-3)Gal(b1-4)GlcNAc(b1-2)Man(a1-3)]Man(b1-4)GlcNAc(b1-4)GlcNAc
How it was run: as §1

[29] = target: GlcNAc(b1-3)Gal(b1-4)GlcNAc(b1-3)Gal(b1-4)GlcNAc
How it was run: as §1

[30] = target: GlcNAc(b1-3)Gal(b1-4)GlcNAc(b1-3)Gal(b1-4)GlcNAc(b1-2)Man(a1-3)[GlcNAc(b1-3)Gal(b1-4)GlcNAc(b1-3)Gal(b1-4)GlcNAc(b1-2)Man(a1-6)]Man(b1-4)GlcNAc(b1-4)GlcNAc
How it was run: as §1

B1: Cohesin-hDCIR (Homo sapiens) (protein)
chain: LDDLDAVRIKVDTVNAKPGDTVRIPVRFSGIPSKGIANCDFVYSYDPNVLEIIEIEPGDIIVDPNPDKSFDTAVYPDRKIIVFLFAEDSGTGAYAITKDGVFATIVAKVKEGAPNGLSVIKFVEVGGFANNDLVEQKTQFFDGGANVGDTTEPATPTTPVTTPTTTDDLDAASQKYSQLLEKKTTKELVHTTLECVKKNMPVEETAWSCCPKNWKSFSSNCYFISTESASWQDSEKDCARMEAHLLVINTQEEQDFIFQNLQEESAYFVGLSDPEGQRHWQWVDQTPYNESSTFWHPREPSDPNERCVVLNFRKSPKRWGWNDVNCLGPQRSVCEMMKIHLHHHHHH
For B1, the “glycan array binding signal (z-score)” value (Glc(b1-6)Glc) was 0.363, the “glycan array binding signal (z-score)” value (GlcA(b1-3)Gal) was -0.632 and the “glycan array binding signal (z-score)” value (GlcA(b1-3)GlcNAc) was -0.242. For the same binder, the “glycan array binding signal (z-score)” value (GlcA(b1-6)Gal) was -0.525, the “glycan array binding signal (z-score)” value [1] was -0.525 and the “glycan array binding signal (z-score)” value [2] was -0.485. The “glycan array binding signal (z-score)” value [3] was -0.109, the “glycan array binding signal (z-score)” value [4] was -0.685 and the “glycan array binding signal (z-score)” value [5] was -0.538. The “glycan array binding signal (z-score)” value [6] was -0.662, the “glycan array binding signal (z-score)” value [7] was -0.696 and the “glycan array binding signal (z-score)” value [8] was -0.651. For the same binder, the “glycan array binding signal (z-score)” value [9] was -0.668, the “glycan array binding signal (z-score)” value [10] was -0.521 and the “glycan array binding signal (z-score)” value [11] was -0.307. For the same binder, the “glycan array binding signal (z-score)” value [12] was -0.224, the “glycan array binding signal (z-score)” value [13] was -0.471 and the “glycan array binding signal (z-score)” value [14] was -0.055. For the same binder, the “glycan array binding signal (z-score)” value [15] was -0.042, the “glycan array binding signal (z-score)” value [16] was -0.61 and the “glycan array binding signal (z-score)” value [17] was -0.429. The “glycan array binding signal (z-score)” value [18] was -0.363, the “glycan array binding signal (z-score)” value [19] was -0.531 and the “glycan array binding signal (z-score)” value [20] was -0.694. The “glycan array binding signal (z-score)” value [21] was -0.498, the “glycan array binding signal (z-score)” value [22] was -0.393 and the “glycan array binding signal (z-score)” value [23] was -0.614. For the same binder, the “glycan array binding signal (z-score)” value (GlcNAc(b1-3)Fuc) was -0.363, the “glycan array binding signal (z-score)” value (GlcNAc(b1-3)Gal) was -0.686 and the “glycan array binding signal (z-score)” value [24] was -0.537. For the same binder, the “glycan array binding signal (z-score)” value (GlcNAc(b1-3)Gal(b1-4)Glc) was -0.675, the “glycan array binding signal (z-score)” value [25] was -0.616 and the “glycan array binding signal (z-score)” value [26] was -0.164. For the same binder, the “glycan array binding signal (z-score)” value [27] was -0.244, the “glycan array binding signal (z-score)” value [28] was -0.272 and the “glycan array binding signal (z-score)” value [29] was -0.186. For the same binder, the “glycan array binding signal (z-score)” value [30] was 1.23.

— the supplement of paper PMC8728848
